T1: factor VIIIa (UniProt P00451 20-2351, limits assumed)
T1 construct: also called FVIIIa
T1 sequence (looked up): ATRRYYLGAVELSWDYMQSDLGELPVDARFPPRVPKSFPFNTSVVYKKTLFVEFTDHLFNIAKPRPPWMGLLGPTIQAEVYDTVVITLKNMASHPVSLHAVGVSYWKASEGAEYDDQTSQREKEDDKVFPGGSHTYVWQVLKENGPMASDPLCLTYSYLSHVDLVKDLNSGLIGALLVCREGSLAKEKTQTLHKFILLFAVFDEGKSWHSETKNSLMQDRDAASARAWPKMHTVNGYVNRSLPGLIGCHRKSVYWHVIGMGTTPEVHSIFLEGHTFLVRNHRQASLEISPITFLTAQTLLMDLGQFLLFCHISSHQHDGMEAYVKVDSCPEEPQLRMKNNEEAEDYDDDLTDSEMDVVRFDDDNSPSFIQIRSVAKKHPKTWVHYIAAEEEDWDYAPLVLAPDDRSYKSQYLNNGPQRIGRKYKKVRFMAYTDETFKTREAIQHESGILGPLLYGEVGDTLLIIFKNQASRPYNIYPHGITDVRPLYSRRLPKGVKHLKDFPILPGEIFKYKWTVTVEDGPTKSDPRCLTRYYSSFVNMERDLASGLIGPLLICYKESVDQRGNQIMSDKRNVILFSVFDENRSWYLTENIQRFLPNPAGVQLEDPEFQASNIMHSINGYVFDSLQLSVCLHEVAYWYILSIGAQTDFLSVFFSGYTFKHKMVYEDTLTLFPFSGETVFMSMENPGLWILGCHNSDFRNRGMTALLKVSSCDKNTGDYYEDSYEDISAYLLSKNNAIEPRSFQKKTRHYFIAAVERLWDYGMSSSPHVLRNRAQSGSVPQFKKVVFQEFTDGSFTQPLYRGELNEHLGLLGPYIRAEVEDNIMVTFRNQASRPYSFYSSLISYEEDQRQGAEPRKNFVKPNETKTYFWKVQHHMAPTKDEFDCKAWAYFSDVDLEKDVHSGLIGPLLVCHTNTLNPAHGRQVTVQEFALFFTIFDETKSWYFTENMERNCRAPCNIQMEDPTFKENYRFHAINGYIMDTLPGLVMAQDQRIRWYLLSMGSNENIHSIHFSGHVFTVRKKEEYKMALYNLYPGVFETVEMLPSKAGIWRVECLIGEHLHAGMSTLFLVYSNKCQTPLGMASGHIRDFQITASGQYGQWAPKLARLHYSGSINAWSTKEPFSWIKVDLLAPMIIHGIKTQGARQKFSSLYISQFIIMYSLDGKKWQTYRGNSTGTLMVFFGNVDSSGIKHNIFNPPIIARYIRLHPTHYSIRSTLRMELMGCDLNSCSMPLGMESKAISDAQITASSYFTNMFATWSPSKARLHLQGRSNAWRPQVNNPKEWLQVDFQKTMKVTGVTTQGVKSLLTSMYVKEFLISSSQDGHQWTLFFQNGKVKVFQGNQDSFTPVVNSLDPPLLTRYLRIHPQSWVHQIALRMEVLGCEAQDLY


Key:
factor VIIIa [1] = target: T1, factor VIIIa; experiment: derived for 0.25 nM factor IXa and 0.4 nM factor VIIIa
factor VIIIa [2] = target: T1, factor VIIIa; experiment: apparent Kd from intrinsic tenase activity (factor Xa generation) at limiting factor VIIIa (0.1 nM), factor IXa 0-15 nM, PCPS, Ca2+
Experimental: (§1) Binding experiments were performed by monitoring the intrinsic tenase activity at limiting concentrations of factor VIIIa. Twenty-five microliters of freshly prepared factor VIIIa (0.4 nM) were incubated with 25 μl of different concentrations of wild type or mutant factor IXa (0-20 nM) to form the intrinsic tenase complex. Activity of the intrinsic tenase complex formed by binding of factor VIIIa to factor IXa was then measured by the addition of 50 μl of a mixture of factor X and Spectrozyme FXa in a reaction buffer containing TBS/Ca/PCPS/BSA. Final concentrations were factor VIIIa, 0.1 nM, PCPS, 40 μM, factor X, 100 nM, Spectrozyme FXa, 0.5 mM, and factor IXa, 0˜15 nM. Experiments were performed in duplicate for 3 independent reactions, and curves were fitted using all data points. The Kd values were derived by calculations according to the following equation as described previously (Chang Y J, et al., Journal of Biological Chemistry. 2002; 277:25393).

factor VIIIa [3] = target: T1, factor VIIIa; experiment: apparent Kd from intrinsic tenase activity at limiting factor VIIIa
Experimental: as §1

factor VIIIa [4] = target: T1, factor VIIIa; experiment: apparent Kd from intrinsic tenase activity at limiting factor VIIIa; this end of the range is tied to IX-2 by the 2nd table, row 21, column 7 (1.2♯)
Experimental: as §1

factor VIIIa [5] = target: T1, factor VIIIa; experiment: apparent Kd from intrinsic tenase activity at limiting factor VIIIa; this end of the range is tied to IX-3 by the 2nd table, row 23, column 7 (1.9♯)
Experimental: as §1

| Binder | Enzyme (concentration of factor IXa-VIIIa complex) (factor VIIIa [1]) | Kd (factor VIIIa [3]) | also measured |
| --- | --- | --- | --- |
| recombinant wild type human factor IX (IX-7) (enzyme, Expressed in human 293 cells and purified; also called wild type factor IX) not shown | 0.033 nM | – | Kd (factor VIIIa [2]): 2.44 nM |
| recombinant human factor IX IX-4, double alanine replacement at residues 86 plus 338 (enzyme) not shown | 0.106 nM | 0.4 nM | – |
| recombinant human factor IX IX-2, single alanine replacement at residue 277 (enzyme) not shown | 0.056 nM | – | Kd (factor VIIIa [4]): 1.2 nM |
| recombinant human factor IX IX-1, single alanine replacement at residue 86 (enzyme) not shown | 0.049 nM | – | – |
| recombinant human factor IX IX-3, double alanine replacement at residues 86 plus 277 (enzyme) not shown | 0.039 nM | – | Kd (factor VIIIa [5]): 1.95 nM |

Continued, in another order:

| Enzyme (concentration of factor IXa-VIIIa complex) (factor VIIIa [1]) | Kd (factor VIIIa [3]) | Binder | also measured |
| --- | --- | --- | --- |
| 0.052 nM | – | recombinant human factor IX IX-8, single alanine replacement at residue 338 (enzyme) not shown | – |
| 0.144 nM | 0.19 nM | recombinant human factor IX IX-6, triple alanine replacement at residues 86, 277 and 338 (enzyme, also called factor IX-6) not shown | fold difference in Kd against IX-7 (factor VIIIa [3]): 10 fold |
| 0.114 nM | 0.34 nM | recombinant human factor IX IX-5, double alanine replacement at residues 277 plus 338 (enzyme) not shown | – |
